Results on 40 molecules are retold here after the antibiotic and cytotoxicity screens of Wong et al. (2023).

This is one part of the list.

The first test concerns HepG2. Put plainly: cytotoxicity call (relative viability < 0.9). The settings on record: 10 µM.
`O=C(C[C@H]1CC[C@H]2[C@@H](COC[C@@H](O)CN2S(=O)(=O)c2ccc(Cl)cc2)O1)NCc1ccncn1`: the cytotoxicity call is “inactive”. Still for that read-out and setting: as for `COCC(=O)N1C[C@@H](C)[C@H](OC)CN(C)C(=O)c2cc(NC(=O)c3ccc(F)cc3)ccc2OC[C@H]1C`, the entry is “inactive”; as for `C[C@@H]1CN([C@H](C)CO)C(=O)Cc2cc(NC(=O)Cc3cn(C)c4ccccc34)ccc2O[C@@H]1CN(C)C(=O)Nc1ccc(C(F)(F)F)cc1`, “inactive”. In the case of `C[C@@H]1CCCCO[C@H](CN(C)CC2CCCCC2)[C@H](C)CN([C@H](C)CO)C(=O)c2cc(NC(=O)c3ccccc3)ccc2O1`, the cytotoxicity call is “active”.

`CN1CCN(C(=O)C[C@H]2C=C[C@H](NC(=O)c3ccc4c(c3)OCO4)[C@@H](CO)O2)CC1`: the cytotoxicity call is “inactive”. For the molecule `C[C@@H]1CN([C@H](C)CO)C(=O)c2cc(C#Cc3ccncc3)cnc2O[C@@H]1CN(C)C(=O)c1ccccc1F`, the cytotoxicity call was “inactive”. Turning to `CC(C)CC#Cc1ccc2c(c1)O[C@@H](CN(C)C(=O)Cc1ccccn1)[C@H](C)CN([C@H](C)CO)S2(=O)=O`, the cytotoxicity call is “inactive”. Same read-out and setting: as for `CCN1CCN(C2=C(NS(=O)(=O)c3ccc(Br)s3)C(=O)c3ccccc3C2=O)CC1`, the entry is “active”; as for `COc1cccc(CNC(=O)c2cc3c(c(-c4cccc(-c5cccc(C#N)c5)c4)n2)[C@H](CCO)N([S@@](=O)C(C)(C)C)C3)c1`, “inactive”. In the case of `CC=Cc1ccc2n(c1=O)C[C@@H]1[C@@H](CO)[C@H](C(=O)NC3CCC3)N(S(C)(=O)=O)[C@H]21`, the cytotoxicity call was “inactive”. Regarding `C=CCc1ccccc1OCC(O)CNC(C)C.Cl` (stereo not drawn), the cytotoxicity call is “active”.

Turning to `C=CCNC(=O)[C@@H]1[C@H]2C(=O)O[C@H](c3ccccc3)[C@H](c3ccccc3)N2[C@H](c2ccccc2OCCO)[C@@]12C(=O)Nc1ccc(C#Cc3ccc(OC)cc3)cc12`, the cytotoxicity call was “inactive”. The same measure, in the same setting: as for `C=CCOC(=O)[C@H]1[C@@H]2C(=O)O[C@@H](c3ccccc3)[C@@H](c3ccccc3)N2[C@@H](c2ccc(OCCOC(=O)[C@H]3C[C@H]4C(=O)N[C@@H](CC(C)C)C(=O)N4[C@H]3c3ccc(O)cc3)cc2)[C@]12C(=O)Nc1ccc(I)cc12`, the entry is “inactive”; as for `CC(C)NC(=O)Nc1cccc2c1O[C@H](CN(C)S(=O)(=O)c1ccccc1)[C@@H](C)CN([C@@H](C)CO)C2=O`, “inactive”. The same measure, in the same setting: then `Cc1ccc(S(=O)(=O)Nc2ccc3c(c2)CC(=O)N([C@H](C)CO)C[C@H](C)[C@H](CN(C)Cc2ccncc2)O3)cc1`, with “inactive”; and `COc1ccc(NC(=O)N(C)C[C@@H]2OCCCC[C@H](C)Oc3ccc(NS(=O)(=O)c4cccs4)cc3C(=O)N([C@H](C)CO)C[C@H]2C)cc1`, with “inactive”; and `COc1ccc(S(=O)(=O)Nc2ccc3c(c2)C(=O)N([C@@H](C)CO)C[C@H](C)[C@@H](CN(C)C(=O)Nc2cccc4ccccc24)O3)cc1`, with “inactive”. `CN(C)CC(=O)N[C@H]1CC[C@@H](CCNC(=O)C2CC2)O[C@@H]1CO`: the cytotoxicity call was “inactive”.

Consider `CC(=O)c1cc(Cl)c(C)cc1O`, for which the cytotoxicity call was “inactive”. Still for that read-out and setting: then `C[C@@H]1CN([C@H](C)CO)C(=O)c2cc(NS(C)(=O)=O)ccc2O[C@@H](C)CCCCO[C@H]1CN(C)S(=O)(=O)c1cn(C)cn1`, with “inactive”. Still for that read-out and setting: as for `Cn1cnc(CN)c1`, the entry is “inactive”; as for `C[C@@H]1CCCCO[C@H](CN(C)Cc2ccc(Cl)c(Cl)c2)[C@@H](C)CN([C@@H](C)CO)C(=O)c2cc(NC(=O)Nc3ccc(C(F)(F)F)cc3)ccc2O1`, “active”. Still for that read-out and setting: as for `CN1CCN(C(=O)C[C@@H]2CC[C@H]3[C@@H](COc4ccc(NC(=O)c5cccs5)cc4C(=O)N3C)O2)CC1`, the entry is “inactive”.

The test system of a further test is S. aureus RN4220. Put plainly: growth inhibition call (relative growth <= 0.2). Particulars: 50 µM.
In the case of `COc1ccc(NC(=O)Nc2ccc3c(c2)C(=O)N([C@H](C)CO)C[C@@H](C)[C@H](CN(C)S(=O)(=O)c2ccc(F)cc2)OCCCC[C@@H](C)O3)cc1`, the growth inhibition call was “inactive”. Same read-out and setting: as for `COc1cccc(S(=O)(=O)N(C)C[C@@H]2Oc3ncc(C#Cc4ccc(F)cc4)cc3C(=O)N([C@H](C)CO)C[C@@H]2C)c1`, the entry is “inactive”. In the case of `C[C@H](CO)N1C[C@H](C)[C@@H](CN(C)Cc2ccc(C(=O)Nc3ccccc3N)cc2)Oc2c(NC(=O)Nc3ccc4c(c3)OCO4)cccc2C1=O`, the growth inhibition call was “inactive”.

In the case of `COc1ccc(NC(=O)Nc2ccc3c(c2)C(=O)N([C@H](C)CO)C[C@@H](C)[C@@H](CN(C)CC2CCCCC2)OCCCC[C@H](C)O3)cc1`, the growth inhibition call is “inactive”. Same read-out and setting: as for `CCCCOCCOc1ccc(-c2ccc3c(c2)/C=C(/C(=O)Nc2ccc([S@@](=O)Cc4cncn4CCC)cc2)CCCN3CC(C)C)cc1`, the entry is “inactive”; as for `Cc1nc(-c2ccccc2)cs1`, “inactive”.

Take `COc1ccccc1CNC(=O)C[C@H]1C[C@H]2c3cc(NC(=O)C4CCOCC4)ccc3O[C@H]2[C@H](CO)O1`: the growth inhibition call was “inactive”. As for `Cc1ccc(S(=O)(=O)Nc2ccc3c(c2)C(=O)N([C@@H](C)CO)C[C@H](C)[C@H](CN(C)S(=O)(=O)c2cccs2)O3)cc1`, the growth inhibition call was “inactive”. With `Cc1noc(C)c1S(=O)(=O)Nc1ccc2c(c1)CC(=O)N([C@@H](C)CO)C[C@@H](C)[C@@H](CN(C)Cc1ccc(C(=O)O)cc1)O2`, the growth inhibition call is “inactive”. On to `C[C@H](CO)N1C[C@H](C)[C@H](CN(C)S(=O)(=O)c2cccs2)Oc2ccc(NC(=O)C3CC3)cc2CC1=O`, for which the growth inhibition call was “inactive”. Turning to `C[C@@H]1CN([C@@H](C)CO)C(=O)c2cc(NC(=O)Nc3ccc(C(F)(F)F)cc3)ccc2O[C@@H](C)CCCCO[C@@H]1CN(C)C(=O)Nc1ccccc1`, the growth inhibition call was “inactive”. For the molecule `COc1cc(OC)c2c(=O)c(O)c(-c3ccc(OC)c(OC)c3)oc2c1`, the growth inhibition call was “inactive”. The same measure, in the same setting: then `C[C@H](CO)N1C[C@H](C)[C@H](CN(C)S(=O)(=O)c2cn(C)cn2)Oc2c(NC(=O)C3CCCCC3)cccc2C1=O`, with “inactive”; and `COc1ccc(CN(C)C[C@@H]2OCCCC[C@H](C)Oc3ccc(NC(=O)NC4CCCCC4)cc3C(=O)N([C@@H](C)CO)C[C@@H]2C)cc1`, with “inactive”; and `C[C@H](CO)N1C[C@H](C)[C@@H](CN(C)Cc2ccc3c(c2)OCO3)Oc2ncc(C#CCN(C)C)cc2C1=O`, with “inactive”. Still for that read-out and setting: as for `Cc1noc(C)c1S(=O)(=O)Nc1cccc2c1O[C@H](CN(C)C(=O)NC(C)C)[C@H](C)CN([C@H](C)CO)C2=O`, the entry is “inactive”. Turning to `NCCCC[C@H](NC(=O)[C@@H]1CCCN1C(=O)[C@@H]1CSSC[C@H](N)C(=O)N[C@@H](Cc2ccccc2)C(=O)N[C@@H](Cc2ccccc2)C(=O)NC(CCC(N)=O)C(=O)N[C@@H](CC(N)=O)C(=O)N1)C(=O)NCC(N)=O` (stereo partly drawn), the growth inhibition call was “inactive”. Take `O=C(C[C@H]1CC[C@H]2[C@@H](COC[C@@H](O)CN2S(=O)(=O)c2ccc(Cl)cc2)O1)NCc1ccncn1`: the growth inhibition call is “inactive”.

Regarding `COCC(=O)N1C[C@@H](C)[C@H](OC)CN(C)C(=O)c2cc(NC(=O)c3ccc(F)cc3)ccc2OC[C@H]1C`, the growth inhibition call is “inactive”. Still for that read-out and setting: as for `C[C@@H]1CN([C@H](C)CO)C(=O)Cc2cc(NC(=O)Cc3cn(C)c4ccccc34)ccc2O[C@@H]1CN(C)C(=O)Nc1ccc(C(F)(F)F)cc1`, the entry is “inactive”. With `C[C@@H]1CCCCO[C@H](CN(C)CC2CCCCC2)[C@H](C)CN([C@H](C)CO)C(=O)c2cc(NC(=O)c3ccccc3)ccc2O1`, the growth inhibition call was “inactive”. The same measure, in the same setting: then `CN1CCN(C(=O)C[C@H]2C=C[C@H](NC(=O)c3ccc4c(c3)OCO4)[C@@H](CO)O2)CC1`, with “inactive”; and `C[C@@H]1CN([C@H](C)CO)C(=O)c2cc(C#Cc3ccncc3)cnc2O[C@@H]1CN(C)C(=O)c1ccccc1F`, with “inactive”; and `CC(C)CC#Cc1ccc2c(c1)O[C@@H](CN(C)C(=O)Cc1ccccn1)[C@H](C)CN([C@H](C)CO)S2(=O)=O`, with “inactive”.

As for `CCN1CCN(C2=C(NS(=O)(=O)c3ccc(Br)s3)C(=O)c3ccccc3C2=O)CC1`, the growth inhibition call was “inactive”.

Turning to `COc1cccc(CNC(=O)c2cc3c(c(-c4cccc(-c5cccc(C#N)c5)c4)n2)[C@H](CCO)N([S@@](=O)C(C)(C)C)C3)c1`, the growth inhibition call was “inactive”.

Turning to `CC=Cc1ccc2n(c1=O)C[C@@H]1[C@@H](CO)[C@H](C(=O)NC3CCC3)N(S(C)(=O)=O)[C@H]21`, the growth inhibition call was “inactive”. With `C=CCc1ccccc1OCC(O)CNC(C)C.Cl` (stereo not drawn), the growth inhibition call was “inactive”.

For `C=CCNC(=O)[C@@H]1[C@H]2C(=O)O[C@H](c3ccccc3)[C@H](c3ccccc3)N2[C@H](c2ccccc2OCCO)[C@@]12C(=O)Nc1ccc(C#Cc3ccc(OC)cc3)cc12`, the growth inhibition call is “inactive”. Turning to `C=CCOC(=O)[C@H]1[C@@H]2C(=O)O[C@@H](c3ccccc3)[C@@H](c3ccccc3)N2[C@@H](c2ccc(OCCOC(=O)[C@H]3C[C@H]4C(=O)N[C@@H](CC(C)C)C(=O)N4[C@H]3c3ccc(O)cc3)cc2)[C@]12C(=O)Nc1ccc(I)cc12`, the growth inhibition call was “inactive”. For `CC(C)NC(=O)Nc1cccc2c1O[C@H](CN(C)S(=O)(=O)c1ccccc1)[C@@H](C)CN([C@@H](C)CO)C2=O`, the growth inhibition call is “inactive”. Turning to `Cc1ccc(S(=O)(=O)Nc2ccc3c(c2)CC(=O)N([C@H](C)CO)C[C@H](C)[C@H](CN(C)Cc2ccncc2)O3)cc1`, the growth inhibition call was “inactive”. On the same count and under the same terms, as for `COc1ccc(NC(=O)N(C)C[C@@H]2OCCCC[C@H](C)Oc3ccc(NS(=O)(=O)c4cccs4)cc3C(=O)N([C@H](C)CO)C[C@H]2C)cc1`, the entry is “inactive”.

Regarding `COc1ccc(S(=O)(=O)Nc2ccc3c(c2)C(=O)N([C@@H](C)CO)C[C@H](C)[C@@H](CN(C)C(=O)Nc2cccc4ccccc24)O3)cc1`, the growth inhibition call is “inactive”. Regarding `CN(C)CC(=O)N[C@H]1CC[C@@H](CCNC(=O)C2CC2)O[C@@H]1CO`, the growth inhibition call was “inactive”.

Regarding `CC(=O)c1cc(Cl)c(C)cc1O`, the growth inhibition call is “inactive”.

For `C[C@@H]1CN([C@H](C)CO)C(=O)c2cc(NS(C)(=O)=O)ccc2O[C@@H](C)CCCCO[C@H]1CN(C)S(=O)(=O)c1cn(C)cn1`, the growth inhibition call was “inactive”. On to `Cn1cnc(CN)c1`, for which the growth inhibition call is “inactive”. As to `C[C@@H]1CCCCO[C@H](CN(C)Cc2ccc(Cl)c(Cl)c2)[C@@H](C)CN([C@@H](C)CO)C(=O)c2cc(NC(=O)Nc3ccc(C(F)(F)F)cc3)ccc2O1`, the growth inhibition call is “inactive”. For `CN1CCN(C(=O)C[C@@H]2CC[C@H]3[C@@H](COc4ccc(NC(=O)c5cccs5)cc4C(=O)N3C)O2)CC1`, the growth inhibition call was “inactive”.
